Assay results taken from PubChem BioAssay AID485344 (National Center for Advancing Translational Sciences (NCATS), 2010).
Screen size: about 340,000 compounds; about 6,900 (2%) were called active. Rule as the data show it: active = inhibition above about 30%; inactive = below that, where a call was filed. The entries are a selection whose mix differs from that of the whole data set. Entries without a call were filed so in the source.

Each compound was assayed against D(2) dopamine receptor (Homo sapiens) (UniProt P14416) (assay: HTS Assay for Allosteric Antagonists of the Human D2 Dopamine Receptor: Primary Screen for Antagonists). Conditions: HEK293 TREx D2 cells, calcium flux, dopamine EC80; at 10 µM; stronger effect = higher value.
Sequence of UniProt P14416 (P14416 whole entry, looked up): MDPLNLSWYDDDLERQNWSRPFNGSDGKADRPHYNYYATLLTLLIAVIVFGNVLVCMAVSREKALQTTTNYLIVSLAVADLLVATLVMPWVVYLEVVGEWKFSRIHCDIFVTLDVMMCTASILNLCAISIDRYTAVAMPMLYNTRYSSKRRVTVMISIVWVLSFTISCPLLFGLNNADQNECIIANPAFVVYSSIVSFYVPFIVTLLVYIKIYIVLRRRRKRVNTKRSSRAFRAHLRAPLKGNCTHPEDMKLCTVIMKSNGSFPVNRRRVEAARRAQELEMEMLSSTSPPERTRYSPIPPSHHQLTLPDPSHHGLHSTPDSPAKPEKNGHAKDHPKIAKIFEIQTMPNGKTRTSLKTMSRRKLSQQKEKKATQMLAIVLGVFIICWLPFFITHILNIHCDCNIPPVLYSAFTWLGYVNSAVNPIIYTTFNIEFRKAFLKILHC
In short: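 Antagonism is scored as inhibition of an EC80 dopamine-evoked calcium signal in a force-coupled, tetracycline-inducible HEK293 T-REx D2 line, with compound present 180 s before agonist.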
Also: 0% is about no effect.

| Structure (SMILES) | inhibition |
| --- | --- |
| O=C(NC1CCCC1)c1cnn(-c2ccc(F)cc2F)c1C1CCNCC1 | 8.88% |
| Cc1cccc(Cn2c(=O)n(CCCCC(=O)NCc3ccc4c(c3)OCO4)c(=O)c3ccccc32)c1 | -5.98% |
| Cc1ccc(S(=O)(=O)N2CCN(Cc3ccccc3)CC2)c(C)c1NS(C)(=O)=O | -9.39% |
| COC(=O)c1ccn(CSc2cc(Cl)ccc2Cl)n1 | active: 41.8% |
| CCSc1nnc2c(n1)OC(c1ccc(OC)cc1OC)N(C(C)=O)c1ccccc1-2 (stereo not given) | -6.65% |
| Cc1ccc(C2=NC(c3ccc(F)cc3)=Nc3ccc(C)cc3N2)cc1 | 1.63% |
| Cc1ccc(S(=O)(=O)c2cnc(SCC(=O)Nc3ccccc3C(F)(F)F)[nH]c2=O)cc1C | 13.6% |
| CCC1CCCCN1C(=O)N[C@@H](CCSC)C(=O)OC (stereo not given in full) | active: 36.7% |
| Cc1ccc(Cl)cc1NC(=O)c1cc2c(=O)n3cccc(C)c3nc2n1C | 9.03% |
| Cc1cc(C)cc(NC(=O)C2CCCN(c3cnccn3)C2)c1 (stereo not given) | 10.4% |
| O=C(NCc1ccc(F)cc1)c1cnc(N2CCOCC2)c2ccccc12 | 19% |
| C/C(=N\NC(=S)NC1CCCCC1)c1ccccc1 | active: 40.7% |
| CCOc1cc(CNC(=O)c2ccc3c(c2)nc2n3CCCCC2)ccc1OC | -25.9% |
| COc1ccc(-n2c(=O)c3c4c(sc3n(CC(=O)N3CCCCC3C)c2=O)CCC4)c(OC)c1 (stereo not given) | 3.48% |
| Cc1cc(C)cc(OCC(O)CN2CCN(C(=O)c3ccco3)CC2)c1 (stereo not given) | active: 34.6% |
| COc1ccccc1N1CCN(S(=O)(=O)c2c(C)sc3ncn(CC(=O)Nc4ccc(C(C)C)cc4)c(=O)c23)CC1 | 1.94% |
| Cc1ccc(N2CCN(C(=O)c3ccc(Nc4nc5ccccc5n5nnnc45)cc3)CC2)c(C)c1 | -3.05% |
| Cc1ccc(C(=O)NNC2=Nc3cccc4cccc2c34)cc1 | active: 70.8% |
| CC1CCN(CCCNC(=O)CN2C(=O)CSc3ccc(S(=O)(=O)N4CCC(C)CC4)cc32)CC1 | 18% |
| CN(C)c1ccc(NC(=O)CSc2nc(-c3ccco3)cc(C(F)(F)F)n2)cc1 | -5.64% |
| Cc1ccc(OCC(=O)c2c(N)n(C)c(=O)n(C)c2=O)c([N+](=O)[O-])n1 | active: 32.9% |
| Cc1ccccc1C(=O)Oc1cc(-c2ccc3c(c2)OCO3)cc(=O)c2c(C)oc(C)c12 | 3.2% |
| O=C(COc1ccccc1Cl)N(Cc1ccco1)Cc1ccco1 | -4.08% |
| CN(C)CCOCCOc1ccc(Cl)cc1C(C)(C)C | active: 64% |

| Structure (SMILES) | inhibition |
| --- | --- |
| COC(=O)c1ccccc1NC(=O)COCc1cc(-c2cccs2)on1 | -20.1% |
| Cc1ccc(CNc2nc3c(c(=O)n(C)c(=O)n3C)n2Cc2ccc(Cl)cc2)cc1 | 26.5% |
| Cc1ccc(CN(C(=O)c2ccc(F)cc2)c2ccccn2)o1 | 3.42% |
| Cc1cc(C)cc(-c2nnc(SCC(=O)Nc3cc(C)on3)o2)c1 | active: 36.3% |
| COc1ccc(C)cc1S(=O)(=O)Nc1ccc(F)c(Cl)c1 | active: 32% |
| CCOC(=O)c1[nH]c2ccccc2c1NC(=O)c1cc(OC)cc(OC)c1 | -3.81% |
| COc1cccc(-c2ccnc3c(-c4ccccc4)c(C)nn23)c1 | -3.96% |
| CCOc1ccc(NC(=O)N2CCC(CN3CCC(C)CC3)CC2)cc1 | 4.74% |
| COc1ccc(-c2[nH]ncc2/C=N/NC(=O)c2ccc(Br)cc2)c(OC)c1 | active: 48.3% |
| COc1ccc(-c2cc(C(=O)NCCc3ccc(Cl)cc3)[nH]n2)cc1 | 0.239% |
| Cc1cc(OCCN2CCOCC2)ccc1Cl | active: 46.5% |
| Cc1cccc(N2CCN(C(=O)COCc3cc(-c4ccc5c(c4)OCO5)on3)CC2)c1C | 13.8% |
| COc1ccc(C2=C(C)C(N3CCC(C(=O)NCc4ccco4)CC3)=NS2(=O)=O)cc1 | -18.2% |
| Cc1ccc(CNS(=O)(=O)c2cc(C(=O)Nc3ccc(C(C)C)cc3)ccc2F)cc1 | 6.94% |
| Cc1ccc(CNC(=O)CSCc2nc(-c3ccc(Cl)cc3)oc2C)cc1 | 21.6% |
| CCc1ccccc1NC(=O)Cn1cc(C(=O)c2ccc(Cl)cc2)c(=O)c2ccc(C)nc21 | 6.43% |
| Cc1cccc(OCCN2CCOCC2)c1C | active: 41.1% |
| COc1ccc2c(c1)c(CC(=O)Nc1cccc(F)c1C)c(C)n2C(=O)c1ccc(Cl)cc1 | 18% |
| S=C(NCCc1ccccc1)Nc1ccccc1N1CCOCC1 | active: 44.7% |
| COc1cccc(-n2ccn(CC(=O)Nc3ccccc3F)c(=O)c2=O)c1 | 2.51% |
| O=C(O)c1cccc(CN2C(=O)S/C(=C/c3cccc([N+](=O)[O-])c3)C2=O)c1 | active: 33.6% |
| Cc1cc(C)c2c(=O)cc(C(=O)Nc3sc4c(c3C#N)CCCC4)oc2c1 | -6.7% |
| O=C(NCc1ccc(F)cc1)c1ccc2c(c1)N(Cc1c(F)cccc1Cl)C(=O)CS2 | 2.1% |
| CC1=C(c2ccc(C)cc2)S(=O)(=O)N(Cc2ccc(C(=O)NCc3ccccc3)cc2)C1=O | 3.48% |

| Structure (SMILES) | inhibition |
| --- | --- |
| Cc1ccccc1NC(=O)CN1C(=O)C2(SCC(=O)N2c2ccc(F)cc2)c2ccccc21 (stereo not given) | -3.38% |
| O=C(Nc1cc(C(F)(F)F)ccc1Cl)c1noc2c1CCCCC2 | 2.86% |
| Cc1oc(C(C)(C)C)cc1C(=O)NC1CCN(Cc2ccccc2)CC1 | active: 85.3% |
| COCCCNC(=O)CSc1nc2cc3c(cc2c(=O)n1CCCCCC(=O)NCCc1ccc(OC)c(OC)c1)OCO3 | -22.1% |
| CCc1nn2c(=O)cc(COC(=O)c3cccc(NC(=O)c4ccccc4C)c3)nc2s1 | 12.3% |
| Cc1ccc(C(C(=O)NC2CCCC2)N(C(=O)Cc2cccs2)c2ccc3c(c2)OCCO3)cc1 (stereo not given) | active: 48.1% |
| COc1ccccc1CNCC(=O)NCc1ccc(C)cc1 | active: 52.4% |
| CCc1nc2c(cnn2-c2ccc(C)cc2)c(=O)n1-c1ccc(C)cc1 | -3.58% |
| Cc1ccc(-c2noc(C(C)NC(=O)c3ccco3)n2)cc1 (stereo not given) | -10.2% |
| COc1ccc(S(=O)(=O)c2c(SC)nn(CC(=O)Nc3ccc(C)c(Cl)c3)c2N)cc1 | 12.1% |
| CC1=CCC(C(=O)O)C(C(=O)NC2CCCCC2)C1 (stereo not given) | active: 44.6% |
| COCc1nnc(NC(=O)C2CC(=O)N(CCc3ccc(F)cc3)C2)s1 (stereo not given) | active: 30.1% |
| O=C(CCN1CCN(c2ccccc2F)CC1)Nc1ccc2c(c1)OCO2 | active: 86.4% |
| COC(=O)c1[nH]c2cc(C)ccc2c1NC(=O)CN1CCN(c2ccccc2OC)CC1 | active: 69.9% |
| N#Cc1ccccc1OCCCN1CCC(Cc2ccccc2)CC1 | active: 84.5% |
| Cc1ccc(C(=O)Nc2nnc(S(=O)(=O)N(C)Cc3ccco3)s2)cc1 | -3.36% |
| CCn1cc(C(=O)NCCc2ccc(OC)c(OC)c2)c(=O)c2cc(S(=O)(=O)N3CCOCC3)ccc21 | 2.34% |
| CC1CCN(S(=O)(=O)c2ccc3c(ccn3CC(=O)NCc3ccccc3F)c2)CC1 | -3.93% |
| COc1cccc(CNC(=O)c2ccc3c(c2)nc2n3CCOC2)c1OC | -18.7% |
| Cc1ccc(C)c(NC(=O)CN2CCN(C3CCCCC3)C(=O)C2=O)c1 | -18.8% |
| Cc1cccc(-n2nnc(-c3nc(-c4ccccc4)no3)c2N)c1C | 6.89% |
| CC12CCC(C(=O)N(CSC(=S)N/N=C\c3ccccc3)C1=O)C2(C)C (stereo not given) | active: 32.4% |
| COC(=O)c1ccc(C2c3c(oc4ccc(C)cc4c3=O)C(=O)N2Cc2ccc3c(c2)OCO3)cc1 (stereo not given) | 15.3% |
| Cc1ccc(NC(=O)C[n+]2cc(-c3ccccc3)n3c2CCC3)c(C)c1 | active: 65.4% |

| Structure (SMILES) | inhibition |
| --- | --- |
| COc1cccc(CNC(=O)Cn2ccc3cc(S(=O)(=O)N4CCCC4)ccc32)c1OC | 13% |
| Cc1ccc(S(=O)(=O)c2nnn3c2nc(NCc2ccc4c(c2)OCO4)c2sccc23)cc1 | 2.66% |
| COc1ccccc1C(=O)Nc1cccc(C(=O)OCc2cc(=O)n3nc(C4CC4)sc3n2)c1 | 2.38% |
| O=C(Nc1ccc(OC(F)(F)F)cc1)C(Cc1ccccc1)NS(=O)(=O)c1cccc2nsnc12 (stereo not given) | -5.35% |
| CC1CCCN(CCCNC(=O)c2ccc3c(c2)N(Cc2cccc(Cl)c2)C(=O)c2ccccc2S3(=O)=O)C1 (stereo not given) | 3.32% |
| Cc1ccc(C)c(CNC(=O)c2ccc3c(c2)nc2n3CCOC2)c1 | -8.59% |
| CC(C)Cc1nn2c(=O)cc(COC(=O)CNC(=O)c3ccc(C(C)(C)C)cc3)nc2s1 | 12.2% |
| CCCCn1c(=NC(=O)C(C)(C)Oc2ccc(Cl)cc2)c(C(=O)OCC)cc2c(=O)n3ccccc3nc21 | 2.86% |
| COc1cccc(N2CCN(C(=O)c3cc4c(s3)-c3c(C)cccc3OC4)CC2)c1 | 9.42% |
| COc1ccc(-c2nc(CN3CCN(C(=O)c4ccco4)CC3)c(C)o2)c(OC)c1C | active: 92.2% |
| Cc1ccc(NC(=O)CN2C(=O)COc3ccc(S(=O)(=O)N4CCCCCC4)cc32)cc1Cl | 7.32% |
| O=C(Cc1ccccc1)Nc1c(C(=O)c2ccccc2)oc2ccccc12 | -1.54% |
| COc1ccc(CNC(=O)c2cc3cc4ccc(C)cc4nc3o2)cc1 | -1.96% |
| CCc1ccc(C(=O)COC(=O)C(Cc2c[nH]c3ccccc23)NC(=O)c2ccc(CC)cc2)cc1 (stereo not given) | 6.11% |
| Cc1ccc(NC(=O)CSc2nnc(-c3nnn(-c4ccc(F)cc4)c3C)o2)cc1Br | 3.94% |
| Cc1nc(-c2cccc(F)c2)sc1CCNC(=O)c1c(F)cccc1Cl | 6.18% |
| CC(=O)NC1CC2CCCC(C1)N2Cc1ccc(C)cc1 (stereo not given) | active: 53.8% |
| Cc1ccc(NS(=O)(=O)c2ccc(-c3cnc(C4CC4)o3)cc2)cc1N(C)C | -20.5% |
| CC(C)Oc1ccc(C(=O)N2CCC(c3nc4ccccc4o3)CC2)cc1 | 13% |
| COc1ccc(-c2cc(C(=O)Oc3ccc(C)cc3)c3ccccc3n2)cc1 | -5.4% |
| COc1cc(NC(=O)CSc2ncc3c(n2)-c2ccc(Cl)cc2N(Cc2ccccc2)S3(=O)=O)cc(OC)c1 | 1.56% |
| CC(=O)Nc1ccc(NC(=O)CSc2nccn2Cc2ccc3c(c2)OCO3)cc1 | 1.03% |
| O=C(Cn1ncc2c3ccccc3n(Cc3ccc(Cl)cc3)c2c1=O)NCCC1=CCCCC1 | -6.52% |
